PubChem BioAssay AID1347417 (National Center for Advancing Translational Sciences (NCATS), 2020)
Out of some 120,000 compounds screened, about 5,300 (4.4%) were called active. Inconclusive results, whose numbers are uncertain, are shown with a selection of clear calls. The call rests on the fitted dose curve; in most records, active means well fitted inhibition curve with a large enough effect; inconclusive means small, poorly fitted or top-dose-only effect; inactive means no such curve, though single readings can be large or run the other way. Potencies of inconclusive entries are doubtful fits and often do not repeat.
Potency means the concentration at half of the fitted maximal effect; tags describe the fitted curve by direction and shape.

Test: qHTS Primary assay for Inhibitors of Plasmodium falciparum Dd2 growth in vitro; further: nearly all actives have a fitted effect of over 65% in size
Settings: P. falciparum Dd2 growth, SYBR Green, 72 h; series mostly up to 28.9 µM
In short: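 Infected erythrocytes (Dd2, 0.3% parasitemia, 2.5% hematocrit final) are added to compound in RPMI-1640/Albumax II medium, grown 72 h at 37C in low oxygen, then lysed with saponin/Triton-X containing SYBR Green and read by fluorescence.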
With `O=C(NCCn1cccc1-c1nc(-c2ccc3c(c2)OCO3)no1)c1ccc(Cl)cc1` the Potency was inconclusive: 11.2 µM [inhibitor, partial curve, poor fit].
In the case of `CCC(=O)N(C1CCOCC1)C1CCN(Cc2cccc(Cl)c2)CC1`, the Potency was inconclusive: 0.631 µM [inhibitor, full curve, poor fit].
For `COc1ccc(CNC(=O)C[C@@H]2CCNC[C@@H]2Cc2cc(-c3ccccc3)on2)cc1OC`, the Potency was inconclusive: 1.12 µM [inhibitor, full curve, poor fit].
For `O=C(C1CN(S(=O)(=O)c2cccnc2)CC12CCCCC2)N1CCc2ccccc2C1` (centres undefined), the Potency was inconclusive: 8.91 µM [inhibitor, partial curve, poor fit].
For `CCCCOc1ccc(C(=O)N2CCC[C@H]2c2nc(-c3ccc(OC)c(OC)c3)no2)cc1`, the Potency was inconclusive: 17.8 µM [inhibitor, single point].
For `O=C(CSc1nc(-c2ccccc2)no1)N1CCN(c2ccc(F)cc2)CC1`, the Potency was inconclusive: 0.891 µM [inhibitor, full curve, poor fit].
With `CCOc1ccc(C(=O)N2CCC[C@H]2c2nc(-c3ccc(OC)c(OC)c3)no2)cc1OCC` the Potency was “inactive”.
In the case of `COc1ccc2c(c1)nc1n2[C@@H](CNCc2ccc3c(c2)OCO3)COC1`, the Potency was inconclusive: 31.6 µM [inhibitor, single point].
For `COc1ccc(C2=NS(=O)(=O)N(C)C(C(=O)NC(C)c3ccccc3)=C2)cc1OC` (centres undefined), the Potency was inconclusive: 11.2 µM [inhibitor, single point].
For `CC1=C(C(=O)OC2CCCC2)C(c2ccc(Cl)cc2)CC(=O)N1` (centres undefined), the Potency was inconclusive: 17.8 µM [inhibitor, single point].
For `COC(=O)N1CCC(c2nn(-c3ccc(Cl)cc3)c(=O)[nH]2)CC1`, the Potency was inconclusive: 31.6 µM [inhibitor, single point].
With `COc1ccc(CCc2nc3nccc(-c4ccc(OC)c(OC)c4)n3n2)cc1` the Potency was active: 12.6 µM.
In the case of `Cc1ccc(C2Cn3nnc(C(=O)N4CCN(C(=O)c5cccc(N(C)C)c5)CC4)c3CO2)cc1` (centres undefined), the Potency was inconclusive: 0.178 µM [inhibitor, partial curve, poor fit].
With `O=C1N(Cc2cccc(F)c2F)CCCC1(O)CN1CCCCC1` (centres undefined) the Potency was inconclusive: 10 µM [inhibitor, single point].
In the case of `COc1ccc2c(CNCCc3ccccc3OC)c(C(=O)O)n(Cc3ccc(F)cc3Cl)c2c1`, the Potency was inconclusive: 0.708 µM [inhibitor, partial curve].
For `COc1ccc(C(=O)N2CCc3ccc(C(=O)NCc4ccccn4)cc32)cc1`, the Potency was inconclusive: 2 µM [inhibitor, full curve, poor fit].
For `Cc1cc(Cn2cc3c4c(cccc42)[C@H](CC(C)C)N[C@H](C(=O)NC2CCCC2)C3)no1`, the Potency was inconclusive: 3.16 µM [inhibitor, partial curve, poor fit].
With `COC[C@@H]1CN(C(=O)c2cc(C3CC3)[nH]n2)C[C@H]1c1nc(C2CC2)no1` the Potency was “inactive”.
In the case of `Cc1nn(-c2ccccc2[N+](=O)[O-])c(C)c1[C@@H]1C=C[C@@H](NCc2ccco2)C1`, the Potency was active: 11.2 µM.
For `COc1ccc(-c2cc(N3CCN(C(=O)Cc4ccc(C)cc4)CC3)n[nH]2)cc1`, the Potency was inconclusive: 2.51 µM [inhibitor, single point].
In the case of `COc1ccc(Cl)cc1NC(=O)c1cc2nc(-c3ccc(C)cc3)cc(C(F)(F)F)n2n1`, the Potency was “inactive”.
In the case of `NC(=O)c1cccnc1OC1CCN(Cc2ccc[nH]2)CC1`, the Potency was inconclusive: 3.98 µM [inhibitor, single point].
With `CN(C)c1ccc(C(=O)NCc2nnc3cc(-c4nc(C5CC5)no4)ccn23)cc1` the Potency was inconclusive: 0.447 µM [inhibitor, partial curve].
In the case of `CCn1cc(-c2ccccc2)cc1C(=O)NC1CCCC1`, the Potency was “inactive”.
For `c1ccc(-c2nc(C3CCNC3)no2)nc1` (centres undefined), the outcome was “inactive [at 5.79 µM]”.
In the case of `Cc1ccc(-n2c(C3CCN(C(=O)c4ccc(Cl)cc4)CC3)n[nH]c2=O)cc1`, the Potency was inconclusive: 11.2 µM [inhibitor, partial curve, poor fit].
For `COCCC(=O)N1CCCCC1c1noc(COc2ccc(C)cc2)n1` (centres undefined), the Potency was inconclusive: 11.2 µM [inhibitor, single point].
For `O=C(c1ccccc1F)N1CCC(Oc2ncccc2C(=O)N2CCCCC2)C1` (centres undefined), the Potency was inconclusive: 1.41 µM [inhibitor, full curve].
With `COc1cccc(CNC(=O)c2ccc3c(c2)sc2nc(-c4ccccc4)cn23)c1OC` the Potency was inconclusive: 10 µM [inhibitor, single point].
With `O=C(Cc1ccccc1F)N1CCC2(CC1)CN(C1CCC1)CC2CO` (centres undefined) the Potency was inconclusive: 10 µM [inhibitor, partial curve, poor fit].
For `Cc1nnc(-c2cc(C(=O)Nc3cccnc3)ccn2)n1CCc1ccccc1`, the Potency was inconclusive: 1.41 µM [inhibitor, partial curve, poor fit].
For `O=C(c1cnc(N2CCCCC2)c2ccccc12)N1CCN(c2ccc(F)cc2)CC1`, the Potency was inconclusive: 17.8 µM [inhibitor, single point].
With `CCc1cnc(N)nc1N1CCC(Oc2ccc(F)cc2)CC1` the Potency was inconclusive: 11.2 µM [inhibitor, single point].
With `COc1cccc(C(=O)Nc2ccc3nc(SCC(=O)N4CCc5ccccc54)sc3c2)c1` the Potency was inconclusive: 11.2 µM [inhibitor, single point].
With `COc1cc(NC(=O)CCCN2C(=O)CCn3nc(-c4cn(C)c5ccccc45)cc32)cc(OC)c1` the Potency was active: 7.94 µM.
In the case of `Cc1ccccc1NC(=O)N1CCC(N2CCCC(C(=O)N3CCCC3)C2)CC1` (centres undefined), the Potency was “inactive”.
With `CC(=O)N1CCC2(CC1)OC(=O)N(Cc1ccccc1)C2(C)c1ccccc1` (centres undefined) the Potency was inconclusive: 3.16 µM [inhibitor, partial curve, poor fit].
In the case of `CN1CCC(OC2CCN(C(=O)COc3ccc(Cl)cc3)CC2)CC1`, the Potency was inconclusive: 11.2 µM [inhibitor, single point].
For `Cc1ccc2nc(N(Cc3cccnc3)C(=O)CCc3ccccc3)sc2c1`, the Potency was inconclusive: 7.94 µM [inhibitor, partial curve, poor fit].
